From paper PMC4336329 (PLoS ONE, 2015)
In all, about 310,000 compounds went through this assay and about 14,000 (4.5%) showed an effect of 50% or more. The effect is printed as a negative number. Some of the results follow.

Target: human ether-à-go-go-related gene (hERG) potassium channel (human, UniProt Q12809)
Test: primary screen, population patch clamp on CHO cells stably expressing hERG
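Further: peak tail current of the secondary pulse compared with the same well before compound.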

human ether-à-go-go-related gene (hERG) potassium channel, sequence (Q12809 whole entry, looked up): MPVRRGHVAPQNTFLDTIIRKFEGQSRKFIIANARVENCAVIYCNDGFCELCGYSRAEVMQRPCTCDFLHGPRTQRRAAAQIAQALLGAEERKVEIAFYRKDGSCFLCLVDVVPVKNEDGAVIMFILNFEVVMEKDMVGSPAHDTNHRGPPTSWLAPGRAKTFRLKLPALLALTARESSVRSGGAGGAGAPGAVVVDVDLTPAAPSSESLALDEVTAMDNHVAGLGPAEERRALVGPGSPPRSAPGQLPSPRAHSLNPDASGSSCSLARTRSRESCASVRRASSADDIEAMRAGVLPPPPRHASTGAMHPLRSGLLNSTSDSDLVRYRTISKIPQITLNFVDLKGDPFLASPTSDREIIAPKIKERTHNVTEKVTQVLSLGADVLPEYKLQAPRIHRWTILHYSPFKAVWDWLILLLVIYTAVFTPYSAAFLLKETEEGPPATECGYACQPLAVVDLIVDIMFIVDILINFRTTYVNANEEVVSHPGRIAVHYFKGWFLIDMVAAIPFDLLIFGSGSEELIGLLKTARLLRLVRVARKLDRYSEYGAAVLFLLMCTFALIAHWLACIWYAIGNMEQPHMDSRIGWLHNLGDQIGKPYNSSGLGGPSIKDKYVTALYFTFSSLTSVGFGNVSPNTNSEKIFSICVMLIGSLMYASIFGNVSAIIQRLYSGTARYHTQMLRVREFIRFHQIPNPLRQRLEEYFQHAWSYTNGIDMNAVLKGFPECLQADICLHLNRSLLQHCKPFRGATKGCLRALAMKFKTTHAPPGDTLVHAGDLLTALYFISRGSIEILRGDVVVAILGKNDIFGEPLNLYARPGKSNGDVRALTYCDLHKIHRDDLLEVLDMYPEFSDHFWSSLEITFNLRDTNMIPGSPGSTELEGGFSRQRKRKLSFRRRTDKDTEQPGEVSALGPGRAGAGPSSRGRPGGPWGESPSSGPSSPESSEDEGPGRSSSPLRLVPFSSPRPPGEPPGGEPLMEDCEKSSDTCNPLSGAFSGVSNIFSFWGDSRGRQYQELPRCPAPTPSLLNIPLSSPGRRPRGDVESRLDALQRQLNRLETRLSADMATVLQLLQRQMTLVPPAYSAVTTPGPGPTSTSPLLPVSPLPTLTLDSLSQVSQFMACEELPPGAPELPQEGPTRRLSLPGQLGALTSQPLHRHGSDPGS

Question: For `CCC(C)(C)C1CCc2[nH]nc(C(=O)NCc3ccc(OC)cc3)c2C1` (stereo not shown), which “hERG current change (%, negative = inhibition) at 10uM” value is on record?
Answer: -0.24%

Question: For `O=C(CCc1ccc(S(=O)(=O)N2CCOCC2)cc1)N/N=C/c1ccc(F)cc1F`, which “hERG current change (%, negative = inhibition) at 10uM” value is on record?
Answer: -13.7%

Question: `CC12CC3(C)CC(C)(C1)CC(C(=O)NC(=S)NC(C)(C)C)(C2)C3` was tested. Which “hERG current change (%, negative = inhibition) at 10uM” value did it give?
Answer: 13.3%

Question: With `CCCSc1nnc(NC(=O)Nc2ccccc2OC)s1` as the compound, how does the “hERG current change (%, negative = inhibition) at 10uM” value read?
Answer: 16.6%

Question: Which “hERG current change (%, negative = inhibition) at 10uM” value does the source give for `COc1ccc(S(=O)(=O)N2CCOCC2)cc1NC(=O)CSc1nnc2c(n1)[nH]c1ccccc12` here?
Answer: -11.5%

Question: Which “hERG current change (%, negative = inhibition) at 10uM” value does the source give for `CC1=C(C(=O)N2CCCC(CCC(=O)NCc3ccc(F)c(F)c3)C2)OCCO1` (stereo not shown) here?
Answer: 3.36%

Question: How did the “hERG current change (%, negative = inhibition) at 10uM” value turn out when `CCCNC(=O)c1ccccc1NS(=O)(=O)c1ccc(OC)c(OC)c1` was run?
Answer: 1.92%

Question: With `Oc1ccccc1-c1nc(NCC2CCCO2)c2ccccc2n1` (stereo not shown) as the compound, how does the “hERG current change (%, negative = inhibition) at 10uM” value read?
Answer: 19%

Question: With `O=C1c2ccccc2C(=O)N1c1cccc2ccccc12` as the compound, how does the “hERG current change (%, negative = inhibition) at 10uM” value read?
Answer: -3.28%

Question: `CC(=O)N1c2ccc(S(=O)(=O)N3CCCC(C(=O)Nc4ccc(C)cc4C)C3)cc2CC1C` (stereo not shown) was tested. Which “hERG current change (%, negative = inhibition) at 10uM” value did it give?
Answer: 5.35%

Question: `COc1cccc(-c2nnc(NC(C)=O)o2)c1` was tested. Which “hERG current change (%, negative = inhibition) at 10uM” value did it give?
Answer: 4.78%

Question: With `Cc1cc(C)c[n+](CC(=O)c2ccc(C)c([N+](=O)[O-])c2)c1.[Br-]` as the compound, how does the “hERG current change (%, negative = inhibition) at 10uM” value read?
Answer: -13.2%

Question: With `Cc1c(O)c2ccccc2oc1=O` as the compound, how does the “hERG current change (%, negative = inhibition) at 10uM” value read?
Answer: -0.676%

Question: For `Cc1ccc(S(=O)(=O)NCC(=O)NC2CCCCCC2)cc1`, which “hERG current change (%, negative = inhibition) at 10uM” value is on record?
Answer: -10.8%

Question: For `CCOC(=O)C(NC(C)=O)(N1CCOCC1)C(F)(F)F` (stereo not shown), which “hERG current change (%, negative = inhibition) at 10uM” value is on record?
Answer: 15.3%

Question: For `CN(C)c1ccc(C(O)P(=O)(OCc2ccccc2)c2ccc(N(C)C)cc2)cc1` (stereo not shown), which “hERG current change (%, negative = inhibition) at 10uM” value is on record?
Answer: 15%

Question: Which “hERG current change (%, negative = inhibition) at 10uM” value does the source give for `O=C(Nc1ccccc1C(=O)N1CCCC1)c1ccc(Cl)c([N+](=O)[O-])c1` here?
Answer: 3.66%

Question: `O=C(Cc1ccc([N+](=O)[O-])cc1)Nc1cccc(C(F)(F)F)c1` was tested. Which “hERG current change (%, negative = inhibition) at 10uM” value did it give?
Answer: -29.3%

Question: With `O=C(COC(=O)Cc1cccs1)Nc1ccc(OC(F)(F)F)cc1` as the compound, how does the “hERG current change (%, negative = inhibition) at 10uM” value read?
Answer: 3.97%

Question: For `Cc1ccccc1-n1c(SCC(=O)Nc2c(C)cccc2C)nc(O)cc1=O`, which “hERG current change (%, negative = inhibition) at 10uM” value is on record?
Answer: 11.7%

Question: How did the “hERG current change (%, negative = inhibition) at 10uM” value turn out when `CCOc1ccc2nc(SCC(=O)NCc3ccc(S(N)(=O)=O)cc3)sc2c1` was run?
Answer: 1.18%

Question: `CC(=O)NCCC(=O)Nc1nc(-c2ccccc2Cl)cs1` was tested. Which “hERG current change (%, negative = inhibition) at 10uM” value did it give?
Answer: -9.76%

Question: With `C=CCOC(=O)C1=C(C)NC(C)=C(C(=O)OCC=C)C1c1cn(-c2ccccc2)nc1-c1ccco1` as the compound, how does the “hERG current change (%, negative = inhibition) at 10uM” value read?
Answer: -1.68%

Question: For `Cl.O=C(Cc1ccccc1)NC1CCN(Cc2ccccc2)CC1`, which “hERG current change (%, negative = inhibition) at 10uM” value is on record?
Answer: 1.21%

Question: For `CCCCn1c(SCC(N)=O)nnc1-c1ccco1`, which “hERG current change (%, negative = inhibition) at 10uM” value is on record?
Answer: 15.3%

Question: For `CCOC(=O)c1ccccc1NC(=O)CN(c1ccccc1C)S(C)(=O)=O`, which “hERG current change (%, negative = inhibition) at 10uM” value is on record?
Answer: -4.92%

Question: How did the “hERG current change (%, negative = inhibition) at 10uM” value turn out when `CCOC(=O)c1c(C)[nH]c(C(=O)COC(=O)C2(C)CC2(Cl)Cl)c1C` (stereo not shown) was run?
Answer: -6.89%

Question: For `Cc1ccc(C)n1-c1cccc(NC(=O)c2ccccc2)c1`, which “hERG current change (%, negative = inhibition) at 10uM” value is on record?
Answer: -10.4%

Question: Which “hERG current change (%, negative = inhibition) at 10uM” value does the source give for `CCCn1c(N2CCN(Cc3ccc(Cl)cc3)CC2)nc2ccccc21.Cl` here?
Answer: -69.8%

Question: With `CC(=O)N1CCC(N(C(=O)Nc2c(F)cccc2F)C(C)C)CC1` as the compound, how does the “hERG current change (%, negative = inhibition) at 10uM” value read?
Answer: 13.8%

Question: With `CC(C)C[C@H]1COCCS(=O)(=O)N1Cc1cccc(Cl)c1` as the compound, how does the “hERG current change (%, negative = inhibition) at 10uM” value read?
Answer: -24%

Question: How did the “hERG current change (%, negative = inhibition) at 10uM” value turn out when `CCOc1cc2c(cc1OCC)-n1cccc1C(c1ccc(OC(F)F)cc1)NC2.Cl` (stereo not shown) was run?
Answer: -65.3%

Question: Which “hERG current change (%, negative = inhibition) at 10uM” value does the source give for `Cc1ccc(CSc2ccc(-c3cccs3)nn2)cc1` here?
Answer: -0.175%

Question: Which “hERG current change (%, negative = inhibition) at 10uM” value does the source give for `CSCCC(NC(=O)c1ccco1)C(=O)NCC(c1ccco1)N1CCCCC1` (stereo not shown) here?
Answer: -11.3%

Question: `CCNC(=S)Nc1cccc(S(=O)(=O)NC2=NCCC2)c1` was tested. Which “hERG current change (%, negative = inhibition) at 10uM” value did it give?
Answer: 25.9%

Question: With `Cc1c(C(=O)N2CCCC2)c(S(=O)(=O)Nc2cccc(Br)c2)c(C)n1C` as the compound, how does the “hERG current change (%, negative = inhibition) at 10uM” value read?
Answer: 6.99%

Question: How did the “hERG current change (%, negative = inhibition) at 10uM” value turn out when `CCOC(=O)c1cccc(NC(=O)CCn2cccc2)c1` was run?
Answer: -27.7%

Question: Which “hERG current change (%, negative = inhibition) at 10uM” value does the source give for `CCOCCCNC(=O)c1c[nH]c2cc(C)ccc2c1=O` here?
Answer: -3.42%

Question: How did the “hERG current change (%, negative = inhibition) at 10uM” value turn out when `Nc1ncnc2nc(SCC(=O)N3CCN(c4ccccc4)CC3)[nH]c12` was run?
Answer: -6.47%

Question: `CCNC(=O)NC(=O)COC(=O)C1CSC2(C)CCC(=O)N12` (stereo not shown) was tested. Which “hERG current change (%, negative = inhibition) at 10uM” value did it give?
Answer: 3.51%

Question: `COc1ccccc1/C=C\C=N\NC(=O)CCn1nnc2ccccc21` was tested. Which “hERG current change (%, negative = inhibition) at 10uM” value did it give?
Answer: -3.44%

Question: With `CC(=O)N[C@@H](C)c1nc2ccccc2n1CCCN1CCN(c2nc(-c3ccc(C)cc3)cs2)CC1` as the compound, how does the “hERG current change (%, negative = inhibition) at 10uM” value read?
Answer: -56.2%

Question: With `COc1ccc(-n2c(=S)[nH]c3sc4c(c3c2=O)CCN(C)C4)cc1` as the compound, how does the “hERG current change (%, negative = inhibition) at 10uM” value read?
Answer: 26.5%
